Measured values published in PubChem BioAssay AID485281 (National Center for Advancing Translational Sciences (NCATS), 2010).
Among all 350,000 compounds or so, about 260 (0.074%) were called active. The shares of active, inactive and inconclusive entries below differ from those in the screen. Calls follow the shape of the dose curve; as a rule, active = well fitted inhibition curve with a large enough effect; inconclusive = small, poorly fitted or top-dose-only effect; inactive = no such curve, though single readings can be large or run the other way. A potency beside an inconclusive call is a rough fit, not a confirmed value.

The compounds below were run against Ferritin light chain (Equus caballus) (UniProt P02791) (assay: qHTS Assay for Identification of Novel General Anesthetics). Settings: apoferritin/1-aminoanthracene competitive binding, fluorescence; series mostly up to 77.5 µM.
How it was run: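 Horse-spleen apoferritin (10 uM) was mixed with 50% saturated 1-aminoanthracene in PBS, exposed to compounds for 10 min at room temperature, and read for fluorescence (ex 380 nm, em 535 nm). Competitive displacement was fitted with a four-parameter Hill equation.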
Also: nearly all actives have a fitted effect of over 20% in size.
Potency is read from the fitted curve at half-maximal effect; tags tell the direction and shape of the fitted curve.

Chain of UniProt P02791 (P02791 whole entry, looked up): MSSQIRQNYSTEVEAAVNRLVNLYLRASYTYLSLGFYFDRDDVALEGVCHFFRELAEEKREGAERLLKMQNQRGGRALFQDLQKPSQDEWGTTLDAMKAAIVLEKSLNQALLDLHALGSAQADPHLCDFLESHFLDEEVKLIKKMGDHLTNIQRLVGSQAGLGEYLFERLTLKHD

Potency, inconclusive:
O=C1Nc2ccccc2C1(c1ccccc1)c1ccccc1 31.6 µM [inhibitor, partial curve]
Cc1cccc(CS(=O)(=O)c2ncc(Cl)c(C(=O)NCc3ccccc3)n2)c1 14.1 µM [inhibitor, partial curve]
COc1ccc(CNC(=O)C/C(C)=N/NC(=O)C23CC4CC(CC(C4)C2)C3)cc1 14.1 µM [inhibitor, partial curve]
COc1cccc(C(=O)N2CCCc3ccccc32)c1 35.5 µM [inhibitor, partial curve]
COc1ccc(NS(=O)(=O)c2ccc3[nH]c4c(c3c2)CCCCCC4)cc1 3.55 µM [inhibitor, full curve, poor fit]
COc1ccc(O)c(-c2[nH]ncc2C(=O)c2ccccc2C)c1 31.6 µM [inhibitor, single point]
c1ccc(COc2ccc(OCCN3CCCCC3)cc2)cc1 28.2 µM [inhibitor, partial curve]
CC(C)C(=O)OCc1cc(=O)n2nc(C3CCCCC3)sc2n1 28.2 µM [inhibitor, partial curve]
CSc1ncccc1C(=O)OCn1nnc2ccccc2c1=O 25.1 µM [inhibitor, partial curve]
COc1ccc(Cn2c(SC)nc3ccccc32)cc1[N+](=O)[O-] 44.7 µM [inhibitor, partial curve]
O=C(CSCc1ccccc1Br)N/N=C/c1ccccc1C(=O)O 20 µM [inhibitor, partial curve]
O=C(C1CCC(CNS(=O)(=O)c2cccs2)CC1)N1CCN(c2ccc(F)cc2)CC1 (centres undefined) 56.2 µM [inhibitor, single point]
COc1ccc(-c2ccc(=O)n(CC(=O)NCc3ccco3)n2)cc1 5.62 µM [inhibitor, partial curve]
Cc1cc(Cl)ccc1NC(=O)C1COc2ccccc2O1 (centres undefined) 15.8 µM [inhibitor, partial curve]
Cc1ccc(Nc2cccccc2=O)cc1 28.2 µM [inhibitor, partial curve]
CCSC(=Nc1ccccc1)Nc1ccccc1 31.6 µM [inhibitor, single point]
Cc1sc2ncn3c(C)nnc3c2c1C 50.1 µM [inhibitor, single point]
CCc1ccc(NC(=S)N2CCCCCCC2)cc1 7.08 µM [inhibitor, full curve]
CCc1cccc(N=c2c([N+](=O)[O-])nn(-c3ccc(Cl)cc3)n2O)c1 28.2 µM [inhibitor, single point]
COc1ccc(N2CCN(C(=O)Nc3cccc(C(F)(F)F)c3)CC2)cc1 44.7 µM [inhibitor, single point]
Nc1cc(N2CCCC2)c(Cl)cc1[N+](=O)[O-] 14.1 µM [inhibitor, partial curve]
CCOC(=O)CSC1=C(C#N)C(c2ccccc2)C(C(C)=O)=C(C)N1 (centres undefined) 39.8 µM [inhibitor, partial curve]
CC(=O)Nc1ccc(NCc2ccc(C)s2)cc1 11.2 µM [inhibitor, partial curve]
O=C(CCCN=C1NS(=O)(=O)c2ccccc21)OCC(=O)c1ccc(Br)cc1 35.5 µM [inhibitor, partial curve]
O=C(O)C1C2CCC(C2)C1C(=O)NCc1ccccn1 (centres undefined) 17.8 µM [inhibitor, partial curve]
Cc1cc(OCC(=O)Nc2ccc(OCc3ccccc3)cc2)nc(C(C)C)n1 39.8 µM [inhibitor, partial curve]
COc1cccc(/C=N/NC(=O)CSCC(=O)Nc2ccccc2)c1O 15.8 µM [inhibitor, partial curve]
O=C(O)Cn1cnc2scc(-c3cccs3)c2c1=O 56.2 µM [inhibitor, single point]
CC(C)c1ccc(C(=O)CSc2ncn[nH]2)cc1 39.8 µM [inhibitor, partial curve]
Cc1ccc(-n2c(C)cc(/C=N/NC(=O)c3ccncc3)c2C)cc1C 31.6 µM [inhibitor, partial curve]
O=C(CN1C(=O)c2ccccc2S1(=O)=O)c1ccc(F)c(F)c1 31.6 µM [inhibitor, partial curve, poor fit]
Cc1ccccc1Cn1cnc2c(cnn2C(C)(C)C)c1=O 35.5 µM [inhibitor, single point]
C=C1SC(=Nc2ccccc2Cl)N(C(=O)c2sc3ccccc3c2Cl)C1(C)C 31.6 µM [inhibitor, partial curve]
CC(C)NC(=O)CSCc1c(Cl)cccc1Cl 35.5 µM [inhibitor, single point]
COc1ccc(NCc2nnc(SCC(=O)N3CCCc4ccccc43)o2)cc1 15.8 µM [inhibitor, partial curve]
Cc1cc(C)cc(OCC(=O)OCCN2C(=O)c3ccccc3C2=O)c1 39.8 µM [inhibitor, partial curve]
COc1cc(C)c(CNc2cccc(C)c2)cc1C 15.8 µM [inhibitor, partial curve]
Cc1ccc(/C=C2/CNC/C(=C\c3ccc(C)cc3)C2=O)cc1 7.94 µM [inhibitor, full curve, poor fit]
Cc1nn(C)c(C)c1NC(=O)C12CC3CC(CC(C3)C1)C2 28.2 µM [inhibitor, partial curve]
Cc1ccc2c(Cl)cc(Cl)c(OCC(=O)NC(C)(C)C)c2n1 44.7 µM [inhibitor, single point]
Cc1cc2oc(=O)c(CC(=O)O)c(C)c2c2occ(C(C)(C)C)c12 28.2 µM [inhibitor, partial curve]
CCCCCCCNC(=O)C1(CC2CC(c3ccc(Cl)cc3)=NO2)CCNCC1 (centres undefined) 14.1 µM [inhibitor, partial curve]
CCOC(=O)CSc1nc2c(sc3ccc([N+](=O)[O-])cc32)c(=O)n1Cc1ccco1 14.1 µM [inhibitor, partial curve]
Cc1nn(Cc2c(F)c(F)c(F)c(F)c2F)c(C)c1NC(=O)c1ccc(COc2ccccc2Cl)cc1 2.51 µM [inhibitor, partial curve, poor fit]
COc1ccccc1CN(Cc1nc2ccccc2c(=O)[nH]1)C(=O)Nc1ccccc1C 25.1 µM [inhibitor, single point]
Cc1ccc(-c2c(C(=O)NCCc3ccc(Cl)cc3)oc(=O)c3ccccc23)cc1 25.1 µM [inhibitor, partial curve]
CC(C)Cc1ccc(CN2CCCC(NC(=O)c3ccoc3)C2)cc1 (centres undefined) 17.8 µM [inhibitor, partial curve, poor fit]

Potency, inactive:
CC1(C)COCN1S(=O)(=O)c1ccc(C(=O)Nc2nnc(-c3ccc(Cl)s3)o2)cc1
CCc1cc2c(N=Nc3c(O)[nH]c4ccccc34)ncnc2s1
Cc1ccc(NC(=O)C2CCCN2S(=O)(=O)c2cccc3cccnc23)cc1C (centres undefined)
N#Cc1nc(-c2ccccc2)oc1NCc1ccco1
COc1cc(OC)cc(-c2nnc(Sc3ccc(C=O)cc3[N+](=O)[O-])o2)c1
COc1cccc(NC(=S)N/N=C2/CCCCc3ccccc32)c1
O=c1c(O[C@@H]2O[C@H](CO)[C@@H](O)[C@H](O)[C@H]2O)c(-c2ccc(O)c(O)c2)oc2cc(O)cc(O)c12
COc1ccc(CCC(=O)Nc2sccc2C#N)cc1
Cc1noc(C)c1-c1nccc(-n2ccnc2)n1
Cc1ccc(Cn2c(CNC(=O)c3ccccc3Br)nc3cccnc32)cc1
COc1ccc(-c2nc(CS(=O)CC(=O)NCc3ccc(Cl)cc3)c(C)o2)cc1OC (centres undefined)
Cc1ccc(-c2nn(CCC(=O)Nc3cccnc3)c(=O)c3ccccc23)cc1
COc1ccc(CCNC(=O)C(=O)NCC(c2ccco2)S(=O)(=O)c2ccccc2)cc1OC (centres undefined)
Cc1cc(C)n(Cc2ccc(C(=O)O)o2)n1
Cc1cc2ncn(/N=C/c3ccc([N+](=O)[O-])s3)c2cc1C
COc1cc(NS(=O)(=O)c2ccc(NC(=S)NC(=O)c3sc4cc(F)ccc4c3Cl)cc2)nc(OC)n1
CC(C1CC1)N(C(=O)NC1CCS(=O)(=O)C1)c1ccccc1 (centres undefined)
O=C(CSc1ncccn1)N/N=C/c1ccc(OC2CSC2)cc1
COC(=O)C1=C[C@@H](C(=O)OC)[C@@H]2C3=C(C(=O)[C@]2(C)NC(=O)c2ccccc2)[C@H](C)[C@@H]2C(=O)NC(=O)[C@@H]2[C@@H]3C1
Cc1cc(C)cc(N(CC(=O)Nc2ccc(-c3nc4ccc(C)cc4s3)cc2)S(C)(=O)=O)c1
COCCn1c(SCC(=O)NCc2ccc3c(c2)OCO3)nnc1-c1c[nH]c2ccccc12
Cc1cccc(N2C(=O)CCSC23C(=O)N(Cc2ccc(F)cc2)c2ccccc23)c1 (centres undefined)
